# Test results from PMC4336329 (PLoS ONE, 2015).
# Among all 310,000 compounds or so, about 14,000 (4.5%) showed an effect of 50% or more. Effects have a minus sign here. The list shows a part of the results.
# Target: human ether-à-go-go-related gene (hERG) potassium channel (human, UniProt Q12809)
# Experiment: primary screen, population patch clamp on CHO cells stably expressing hERG
# 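Note: peak tail current of the secondary pulse compared with the same well before compound.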
# Sequence of human ether-à-go-go-related gene (hERG) potassium channel (Q12809 whole entry, looked up): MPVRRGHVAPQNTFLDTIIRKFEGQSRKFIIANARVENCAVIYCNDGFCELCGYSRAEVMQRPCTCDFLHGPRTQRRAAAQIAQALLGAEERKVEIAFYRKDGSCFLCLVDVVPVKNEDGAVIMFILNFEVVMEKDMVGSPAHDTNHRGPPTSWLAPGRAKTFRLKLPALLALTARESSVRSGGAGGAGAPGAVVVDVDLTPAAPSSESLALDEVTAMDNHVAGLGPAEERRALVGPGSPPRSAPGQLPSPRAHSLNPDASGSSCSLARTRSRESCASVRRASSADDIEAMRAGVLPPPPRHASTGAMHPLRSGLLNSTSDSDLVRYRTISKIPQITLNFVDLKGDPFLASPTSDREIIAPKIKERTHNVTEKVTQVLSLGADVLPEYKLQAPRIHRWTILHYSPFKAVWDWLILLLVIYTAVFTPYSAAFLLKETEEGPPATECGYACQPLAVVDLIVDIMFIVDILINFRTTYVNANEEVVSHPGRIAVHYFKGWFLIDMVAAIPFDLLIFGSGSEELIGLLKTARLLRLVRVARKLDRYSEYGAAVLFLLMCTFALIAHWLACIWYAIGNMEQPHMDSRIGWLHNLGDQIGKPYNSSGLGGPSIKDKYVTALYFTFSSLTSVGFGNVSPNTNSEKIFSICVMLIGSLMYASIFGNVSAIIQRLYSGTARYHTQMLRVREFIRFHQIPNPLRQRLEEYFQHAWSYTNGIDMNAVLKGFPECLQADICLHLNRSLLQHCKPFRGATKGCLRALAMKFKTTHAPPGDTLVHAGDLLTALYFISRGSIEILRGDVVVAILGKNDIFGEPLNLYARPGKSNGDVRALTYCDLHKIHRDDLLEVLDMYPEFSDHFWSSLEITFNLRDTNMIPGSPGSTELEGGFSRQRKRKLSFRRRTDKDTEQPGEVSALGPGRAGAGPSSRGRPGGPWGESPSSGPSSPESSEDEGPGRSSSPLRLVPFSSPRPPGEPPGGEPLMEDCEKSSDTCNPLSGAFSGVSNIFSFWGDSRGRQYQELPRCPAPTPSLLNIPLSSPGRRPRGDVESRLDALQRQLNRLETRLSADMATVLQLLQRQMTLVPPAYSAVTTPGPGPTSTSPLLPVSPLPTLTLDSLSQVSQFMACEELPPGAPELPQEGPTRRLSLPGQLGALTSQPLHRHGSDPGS
row,Compound,"hERG current change (%, negative = inhibition) at 10uM"
1,CN(C)CCCn1cnc2c(c1=N)C(c1ccccc1)c1ccc3ccccc3c1O2 (centres unmarked),-75.9%
2,CC1CCCN(C(=O)C2CCN(C(=O)Nc3ccccc3)CC2)C1 (centres unmarked),-7.96%
3,Cc1ccc(-n2nnnc2SCC(=O)Nc2c(C)n(C)n(-c3ccccc3)c2=O)cc1,-4.6%
4,COc1ccc(C(=O)N2CCN(C)C(C)C2)cc1OC1CCN(C(C)=O)CC1 (centres unmarked),16.6%
5,CCOc1cc(/C=C2/C(=N)N3N=C(C)SC3=NC2=O)ccc1OS(=O)(=O)c1ccc(C)cc1,0.16%
6,O=C(/C=C/c1ccco1)NCc1ccccn1,11.3%
7,FC(F)(F)c1ccc(NC2=NCCC2)cc1,-4%
8,CC(=O)Nc1ccc(S(=O)(=O)NCCC(=O)Nc2ccc(C)c(Cl)c2)cc1,-3.17%
9,Cc1ccc2cc(-c3noc(C(C)(C)C)n3)c(=O)[nH]c2c1,-17%
10,O=C(CN1CCN(c2ccc(O)cc2)CC1)Nc1cc(S(=O)(=O)N2CCCCC2)ccc1Cl,-31.8%
11,O=S(=O)(NC1=NCCC1)c1ccc(F)cc1F,17.3%
12,COCCNc1nnc(SCC(=O)N2CCN(S(=O)(=O)c3ccccc3)CC2)s1,-2.94%
13,CC[N+]1(C)CCC(=C2c3ccccc3CC(=O)c3sccc32)CC1.[Br-] (centres unmarked),-0.0826%
14,Cc1cc(=O)[nH]c(N/N=C/c2c(C)oc3ccccc23)n1,-0.943%
15,CCOc1ccc(NN=C(C(=O)OC)C(=O)OC)c([N+](=O)[O-])c1,11.2%
16,CCOS(=O)(=O)[O-].CC[n+]1c(/C=C/Nc2ccccc2)oc2ccc(OC)cc21,-77.2%
17,CCn1c(SCC(=O)NC(=O)c2ccccc2OC)nc2ccccc21,-70.8%
18,CCN(CC)CCOC(=O)c1ccc(Cl)cc1Cl.Cl,-55.4%
19,CC(OC(=O)C1=COCCO1)C(=O)Nc1cccc(S(=O)(=O)N2CCOCC2)c1 (centres unmarked),18%
20,O=C(c1cccc([N+](=O)[O-])c1)N1CCCC(C(=O)N2CCCCCC2)C1 (centres unmarked),-4.58%
21,C=CCOc1nc2c(c(=O)n(C)c(=O)n2C)n1Cc1ccc(Cl)cc1Cl,-2.7%
22,CCc1cc2cc(C)c(C)cc2nc1SCC(=O)NNC(=O)c1ccco1,21.5%

row,Compound,"hERG current change (%, negative = inhibition) at 10uM"
1,c1ccc2c(c1)nc(N1CCOCC1)c1c3ccccc3[nH]c21,5.47%
2,C/C(=N\NC(=O)c1cc(O)ccc1O)c1cccc(NC(=O)c2cccc(Cl)c2)c1,18.4%
3,NC(=O)c1ccc(-n2nnnc2SCC(=O)Nc2ccccc2)cc1,14.3%
4,CC(=O)C1=C(O)C(=O)N(c2ccc(O)cc2)C1c1ccccc1 (centres unmarked),5.28%
5,O=C(O)c1cc(C2CC2)nc2ccccc12,10.1%
6,O=c1[nH]cccc1-c1nc2ccccc2n1Cc1ccc(Cl)cc1,-23.8%
7,Oc1ccccc1CNc1ncc(Br)cc1Br,8.67%
8,O=C(NC1CCCCC1)C1CCCN1S(=O)(=O)c1ccc(F)cc1 (centres unmarked),-0.938%
9,Cc1cc(C(=O)NC(C)c2ccccc2)c2cc(F)ccc2n1 (centres unmarked),3.06%
10,COc1ccc([C@@H]2CC=C(C(=O)O)[C@H](c3ccc(F)cc3)N2S(=O)(=O)c2ccccc2C)cc1,17.7%
11,COc1ccc2ccccc2c1/C=N/NC(=O)c1nnn(-c2nonc2N)c1CN(C)C,-5.92%
12,O=C(CSc1ncn[nH]1)Nc1cccc2ccccc12,3.88%
13,COc1cc(/C=N/NC(=O)c2nc(C)cc(C)n2)ccc1O,7.57%
14,CCOC(=O)c1[nH]c(C)c(CN(CCc2ccc(OC)c(OC)c2)C(=O)CCCC(=O)O)c1C,4.19%
15,Cc1cnn(-c2ccc3nnc(-c4ccc(Br)cc4)n3n2)c1,-3.17%
16,CCOC(=O)c1cc(-c2ccccc2)sc1NC(=O)CN1C(=O)NC(CC)(c2ccc(F)cc2)C1=O (centres unmarked),8.98%
17,CN1CCN(C(=O)c2ccccc2-c2ccccc2C(=O)O)CC1,15.7%
18,CN1C(=O)N(C)c2ccc(C=O)c3cccc1c23,27%
19,COc1ccc(OC)c(S(=O)(=O)Nc2ccc(-c3ccc4nncn4n3)cc2)c1,-45.5%
20,CCn1c(C)c(C)c2cc(C(=O)NC3CCCCCC3)ccc21,-4.97%
21,Cc1ccc2c(Cl)cc(Cl)c(OCC(=O)Nc3cccc(S(N)(=O)=O)c3)c2n1,6.45%
22,O=C(Oc1ccc(/C=N/NC(=O)c2ccccc2O)cc1)c1ccccc1,-9.76%

row,Compound,"hERG current change (%, negative = inhibition) at 10uM"
1,Cc1cc(C(=O)COc2cccnc2[N+](=O)[O-])c(C)n1-c1ccccc1,-11.2%
2,COc1cc(C(=O)NC(C)c2ccc3ccccc3c2)cc(Cl)c1O (centres unmarked),4.57%
3,CCCC(=O)Nc1ccc(Cl)c(NC(=S)NC(=O)C(C)C)c1,14.5%
4,CC(On1nnc2ccccc21)C(=O)N1CCN(Cc2ccccc2)CC1 (centres unmarked),18.2%
5,O=C(c1cc(COc2ccc(F)cc2Cl)on1)N(CCO)Cc1cccs1,-31.6%
6,COc1ccc(CN(C)C(=O)c2ccc(NS(=O)(=O)c3ccc4[nH]c(=O)[nH]c4c3)cc2)c(OC)c1,-7.33%
7,COC(=O)c1ccc(NC(=O)C2CCCN(S(C)(=O)=O)C2)cc1 (centres unmarked),17%
8,CSc1ncc(CN2CCCC(C(=O)c3ccc(C(C)(C)C)cc3)C2)cn1 (centres unmarked),-31.9%
9,CCCCOC(=O)Nc1cccc(C(=O)OCC)c1,-1.82%
10,O=C(O)c1cc(S(=O)(=O)N2CCN(S(=O)(=O)c3ccccc3)CC2)ccc1Cl,18.5%
11,Cc1cc(/C=N/NC(=O)c2ccccc2F)c(C)n1-c1ccccc1,-5.49%
12,O=C(O)c1ccc2nc3c(nc2c1)-c1ccccc1C3=O,23.8%
13,O=C(NCc1ccncc1)Nc1ccc2c(c1)OCO2,9.91%
14,CCOC(=O)Cc1nc2ccccc2[nH]1,-16.4%
15,O=C(Cn1ncc2c3ccccc3n(Cc3ccccc3F)c2c1=O)N1CCC2(CC1)OCCO2,-72.8%
16,CCN(CC)c1ccc(/C=N/N2CCN(Cc3ccc(C)cc3C)CC2)c(O)c1,1.12%
17,Cc1ccc(OCCOC(=O)c2cccc(S(=O)(=O)N3CC(C)OC(C)C3)c2)cc1 (centres unmarked),-2.59%
18,NC(=O)C1=C[C@@H](c2csc3ccccc23)C[C@@H](OCCCCO)O1,-27.4%
19,O=C1NC(=Nc2ccc(F)cc2)SC1Cc1ccc(F)cc1 (centres unmarked),-3.61%
20,c1ccc2c(c1)OCC(CNc1ncnc3nc[nH]c13)O2 (centres unmarked),6.22%
21,O=C1CC(c2cccc(F)c2)SC(N(c2ccccc2)c2ccccc2)=N1 (centres unmarked),-9.7%
22,COc1ccc(Oc2coc3cc(OC(=O)/C=C/c4ccc(F)cc4)ccc3c2=O)cc1,3.31%

row,Compound,"hERG current change (%, negative = inhibition) at 10uM"
1,CC1(C)CNc2cc([N+](=O)[O-])ccc2S1,6.88%
2,COc1ccc(NC(C)=O)cc1NS(=O)(=O)c1cn(C)c(=O)n(C)c1=O,12.9%
3,COc1ccc(C=NCC2OCCc3ccccc32)cc1OC (centres unmarked),14.2%
4,CCOC(=O)c1ccc(NC(=O)CSc2nc(=O)n3cccc(C)c3n2)cc1,-21.9%
5,CC(CC(=O)Nc1ccccc1)n1ccnc1 (centres unmarked),-5.07%
6,COc1ccc(C(C(=O)NC2CCCCC2)N(C(=O)c2sc(C)nc2C)c2ccc(C(C)=O)cc2)cc1 (centres unmarked),12.6%
7,COc1cccc(NC(=O)c2cc([N+](=O)[O-])ccc2NC(=O)CNCC2CCCO2)c1 (centres unmarked),-16.4%
8,O=C(Cn1nnc(-c2ccccc2F)n1)Nc1cccc2ncccc12,6.23%
9,CCCc1cc(=O)[nH]c(SCc2cccnc2)n1,5.5%
10,CC1Cc2ccccc2N1c1ncnc2c1nnn2Cc1ccccc1Cl (centres unmarked),7.99%
11,COc1cccc2cc(C(C)N(CCCN3CCOCC3)C(=S)Nc3ccc(C)c(C)c3)oc12 (centres unmarked),17%
12,Cc1cc2c(NCC(C)O)ncnc2s1 (centres unmarked),17.2%
13,O=C(CN(C(=O)c1csnn1)c1cccc2ccccc12)NC1CCCC1,-2.34%
14,O=C(O)COc1ccccc1/C=N/NC(=O)/C(=C\c1ccc2c(c1)OCO2)NC(=O)c1ccccc1,12.7%
15,Cc1ccc(N2C(=O)CC(N3CCN(S(=O)(=O)c4ccccc4)CC3)C2=O)c(C)c1 (centres unmarked),1.53%
16,COc1ccc(CCNC(=O)c2nonc2N)cc1,-15.8%
17,O=C(Nc1ccc(Cl)cn1)c1cccc(S(=O)(=O)N2CCCC2)c1,-50.9%
18,COCc1ccc(C(=O)N2CCCC(N3CCN(c4ccc(F)cc4)CC3)C2)o1 (centres unmarked),-47.3%
19,Cc1ccc(-c2[nH]ncc2CNCCc2cnn(-c3ccccc3)c2)cc1C,-66.4%
20,C=C1CCN([C@@H](CC(C)C)C(=O)NCCC(C)C)S(=O)(=O)c2ccccc21,-6.27%
